The other results are listed elsewhere or left out.
B1: PhoQ; a variant is named by its letters at X, in order, P23837 (parent)
chain: MKKLLRLFFPLSLRVRFLLATAAVVLVLSLAYGMVALIGYSVSFDKTTFRLLRGESNLFYTLAKWENNKLHVELPENIDKQSPTMTLIYDENGQLLWAQRDVPWLMKMIQPDWLKSNGFHEIEADVNDTSLLLSGDHSIQQQLQEVREDDDDAEMTHSVAVNVYPATSRMPKLTIVVVDTIPVELKSSYMVWSWFIYVLSANLLLVIPLLWVAAWWSLRPIEALAKEVRELEEHNRELLNPATTRELTSLVRNLNRLLKSERERYDKYRTTLTDLTHSLKTPLXXLQXXLRSLRSEKMSVSDAEPVMLEQISRISQQIGYYLHRASMRGGTLLSRELHPVAPLLDNLTSALNKVYQRKGVNISLDISPEISFVGEQNDFVEVMGNVLDNACKYCLEFVEISARQTDEHLYIVVEDDGPGIPLSKREVIFDRGQRVDTLRPGQGVGLAVAREITEQYEGKIVAGESMLGGARMEVIFGRQHSAPKDE

Variants of: B1
Experiment: enrichment ratio after two sorts for PhoP signalling (ratio (wild type AVST 3.29)); higher = more functional
Conditions: with PhoP (E. coli)

Variant	enrichment ratio
RVQR	≤ 0.25
DWPL	≤ 0.25
INGM	≤ 0.25
WYER	≤ 0.25
AVTN	9.32
DEIP	≤ 0.25
MHFI	≤ 0.25
GQIG	23.8
DRMM	≤ 0.25
KCAD	≤ 0.25
SNPI	1.76
AHYG	≤ 0.25
YCWH	≤ 0.25
EHHN	≤ 0.25
WCMS	≤ 0.25
MFAQ	≤ 0.25
VNMC	1.44
VWEQ	≤ 0.25
LTID	≤ 0.25
RCEA	≤ 0.25
CHFI	≤ 0.25
KLQA	≤ 0.25
IFYY	≤ 0.25
MFHC	≤ 0.25
EHYA	≤ 0.25
SYGR	≤ 0.25

Variant	enrichment ratio
LYLS	≤ 0.25
SNKA	≤ 0.25
QAWN	7.69
VNMA	≤ 0.25
GNPW	≤ 0.25
HGFV	≤ 0.25
VQPE	≤ 0.25
PRTH	≤ 0.25
FNIR	≤ 0.25
MHTV	≤ 0.25
WNCL	≤ 0.25
HEVV	≤ 0.25
NFCW	≤ 0.25
GRQN	≤ 0.25
HGYY	≤ 0.25
ELNA	≤ 0.25
FILW	≤ 0.25
PEPV	≤ 0.25
DHHC	≤ 0.25
SKKP	≤ 0.25
TNLC	13.5
PRWV	≤ 0.25
DQQH	≤ 0.25
PMPI	≤ 0.25
IEHY	≤ 0.25
WYHN	≤ 0.25

Variant	enrichment ratio
YEKS	≤ 0.25
YRSE	≤ 0.25
WHFQ	1.98
KREI	≤ 0.25
GPCD	≤ 0.25
NWQC	≤ 0.25
NITA	≤ 0.25
WYTS	≤ 0.25
SALQ	17.5
HMFS	≤ 0.25
FCNR	≤ 0.25
GEAR	≤ 0.25
AKPP	≤ 0.25
INQL	≤ 0.25
SKAT	5.34
FVSS	≤ 0.25
WYFP	≤ 0.25
YSWG	≤ 0.25
ACKF	≤ 0.25
IMTA	≤ 0.25
VKGW	≤ 0.25
PTHV	≤ 0.25
LYEF	≤ 0.25
FMSF	≤ 0.25
WKFA	≤ 0.25
YRMS	≤ 0.25

Variant	enrichment ratio
FMYP	≤ 0.25
YKMQ	≤ 0.25
LPER	≤ 0.25
FHCT	≤ 0.25
KYNT	≤ 0.25
RMAE	≤ 0.25
TITS	15.9
MFKS	≤ 0.25
DYHY	≤ 0.25
PPMQ	≤ 0.25
HGFP	≤ 0.25
ESTC	≤ 0.25
RKNS	≤ 0.25
RHQI	≤ 0.25
IGET	≤ 0.25
YHPR	≤ 0.25
EFWE	≤ 0.25
KMCD	≤ 0.25
PMGN	≤ 0.25
IVSG	≤ 0.25
RHKD	≤ 0.25
IYGN	≤ 0.25
WYHD	≤ 0.25
NQFI	≤ 0.25
MAHI	24.7
ITRP	≤ 0.25

Variant	enrichment ratio
VVTH	≤ 0.25
HNER	≤ 0.25
WCLR	≤ 0.25
HTLW	≤ 0.25
QLGR	≤ 0.25
FMRN	≤ 0.25
IMGS	≤ 0.25
FKVQ	≤ 0.25
VCSC	≤ 0.25
IWGS	≤ 0.25
HHRC	≤ 0.25
FAIY	≤ 0.25
GIMG	8.1
FPAV	≤ 0.25
HANL	≤ 0.25
YDMQ	≤ 0.25
TYLV	2.37
WSWF	≤ 0.25
SAWW	≤ 0.25
HGLL	9.56
TMFF	≤ 0.25
YTPH	≤ 0.25
ITRQ	≤ 0.25
FGLF	2.06
SHMM	2.18
EQVD	≤ 0.25

Variant	enrichment ratio
PGVR	≤ 0.25
LDRT	≤ 0.25
YAPF	≤ 0.25
QMHL	4.14
FNPC	≤ 0.25
PIYA	≤ 0.25
AFTF	≤ 0.25
TISP	≤ 0.25
SQFT	≤ 0.25
PMWH	≤ 0.25
DCIQ	≤ 0.25
AKII	13.6
HSTQ	≤ 0.25
KKCM	≤ 0.25
HEQY	≤ 0.25
QNYR	≤ 0.25
KLHA	≤ 0.25
SIDV	≤ 0.25
RKNR	≤ 0.25
GPNY	≤ 0.25
EPRV	≤ 0.25
IKWS	≤ 0.25
HNCG	≤ 0.25

Reference: a collection of fitness landscapes (doi:10.1126/science.1257360)
